Reference: PubChem BioAssay AID1478 (National Center for Advancing Translational Sciences (NCATS), 2009)
About 860 (0.43%) of roughly 200,000 compounds were called active. Inconclusive results, whose numbers are uncertain, are shown with a selection of clear calls. Calls come from the whole dose curve; as a rule, active = well fitted inhibition curve with a large enough effect; inconclusive = small, poorly fitted or top-dose-only effect; inactive = flat fitted curve, though single readings scatter. Where the call is inconclusive, the potency comes from a doubtful curve fit.

molecular target: Cruzipain (Trypanosoma cruzi) (UniProt P25779); assay: qHTS Assay for Promiscuous and Specific Inhibitors of Cruzain (with detergent); settings: purified cruzain, Z-FR-AMC fluorescence, 0.01% Triton; note: nearly all actives have a fitted effect of over 40% in size;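 for max response, negative = inhibition: plate controls were neutral wells for no effect and buffer without enzyme for full effect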
In short: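 In this qHTS format, compounds are incubated with 1.5 nM cruzain for 15 min at room temperature before 2 uM Z-FR-AMC is added. Release of AMC is followed at 360/450 nm, and progress is taken as the 60 s fluorescence difference.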
Potency is the fitted concentration of half-maximal effect; tags give direction and shape of the fitted curve.

Sequence of UniProt P25779 (P25779 whole entry, looked up): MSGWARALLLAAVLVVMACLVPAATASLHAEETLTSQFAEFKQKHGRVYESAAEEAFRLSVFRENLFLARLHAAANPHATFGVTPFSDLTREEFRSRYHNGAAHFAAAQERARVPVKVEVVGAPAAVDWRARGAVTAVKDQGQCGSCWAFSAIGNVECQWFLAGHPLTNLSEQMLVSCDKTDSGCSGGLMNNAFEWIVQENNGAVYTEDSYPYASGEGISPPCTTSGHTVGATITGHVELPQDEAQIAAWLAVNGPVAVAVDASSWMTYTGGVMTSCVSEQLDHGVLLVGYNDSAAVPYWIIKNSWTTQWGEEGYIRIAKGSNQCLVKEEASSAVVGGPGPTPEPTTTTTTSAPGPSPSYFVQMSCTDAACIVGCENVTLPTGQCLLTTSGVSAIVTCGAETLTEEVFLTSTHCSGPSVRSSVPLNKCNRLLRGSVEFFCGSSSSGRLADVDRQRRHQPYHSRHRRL

| Structure (SMILES) | max response, negative = inhibition | Potency |
| --- | --- | --- |
| COc1ccc(NC(=O)c2cc(-c3ccccc3OC)on2)cc1 | inactive: -5.52% | – |
| Cc1c(CCC(=O)NCc2ccc(F)cc2)c(=O)oc2cc(O)ccc12 | – | inconclusive: 25.1 µM [inhibitor, single point] |
| O=C(NCCc1ccccc1)C(=O)NCC(c1ccco1)S(=O)(=O)c1cccs1 (configuration not stated) | inactive: 1.12% | – |
| Oc1cccc(Nc2nc(NCC3CCCO3)c3ccccc3n2)c1 (configuration not stated) | – | active: 17.8 µM |
| O=C1C(Cl)=C(N2CCOCC2)C(=O)N1c1ccccc1Cl | – | inconclusive: 17.8 µM [inhibitor, single point] |
| Nc1c(S(=O)(=O)O)cc(Nc2ccc(Nc3nc(Cl)nc(Nc4ccc(S(=O)(=O)O)cc4)n3)c(S(=O)(=O)O)c2)c2c1C(=O)c1ccccc1C2=O | – | inconclusive: 12.6 µM [inhibitor, partial curve] |
| CN1/C(=C\C=N\NC(=O)c2ccc(O)cc2)C(C)(C)c2ccccc21 | – | inconclusive: 25.1 µM [inhibitor, single point] |
| CCOC(=O)C1CCCN(C(=O)c2ccc3c(c2)N(Cc2ccccc2)C(=O)c2ccccc2S3(=O)=O)C1 (configuration not stated) | inactive: 0.585% | – |
| CC(C)Oc1c(Br)cc(Br)cc1/C=N/NC(N)=S | – | active: 0.708 µM |
| COc1ccc(/C=N/N=C2/NC(=O)C(CC(=O)O)S2)cc1OCc1ccc(Cl)cc1 (configuration not stated) | – | inconclusive: 31.6 µM [inhibitor, single point] |
| O=C(NCc1ccc(Cl)cc1)c1cc(S(=O)(=O)N2CCCCC2)c[nH]1 | – | inconclusive: 22.4 µM [inhibitor, single point] |
| COc1ccccc1CNC(=O)CCn1c(=O)c2ccccc2n(CC(=O)Nc2cccc(Cl)c2)c1=O | – | inconclusive: 35.5 µM [inhibitor, single point] |
| CCC1=NNc2cccc3c(OC)ccc1c23 | – | inconclusive: 35.5 µM [inhibitor, single point] |
| O=S(=O)(c1ccccc1)c1nc(Nc2ccccc2N2CCOCC2)sc1Cl | inactive: -4.74% | – |
| Cc1ccnc(NC(c2ccccc2F)c2ccc3cccnc3c2O)c1 (configuration not stated) | – | inconclusive: 0.708 µM [inhibitor, full curve, poor fit] |
| CCC(Oc1ccccc1F)C(=O)Nc1c(C(=O)c2ccccc2)oc2ccccc12 (configuration not stated) | inactive: -3.01% | – |
| O=C(Oc1ccccc1)N1CCC2(CC1)CCN(c1ccncc1)CC2 | inactive: 1.63% | – |
| Cc1cc(F)ccc1NC(=O)c1sc2nc(-c3cccs3)ccc2c1N | – | inconclusive: 25.1 µM [inhibitor, single point] |
| Cc1cc(N2CCC(C)CC2)nc2ccc(NC(=O)CCC(=O)N3CCN(c4cccc(C(F)(F)F)c4)CC3)cc12 | – | active: 12.6 µM |
| CC(=O)n1cc(/C=C2/N=C(c3ccccc3)OC2=O)c2ccccc21 | – | active: 4.47 µM |
| COc1cccc(/C=N/N2C(=O)CSC2=S)c1O | – | inconclusive: 25.1 µM [inhibitor, partial curve] |

| Structure (SMILES) | max response, negative = inhibition | Potency |
| --- | --- | --- |
| C#CCOCCOCCOCCNc1nc(N2CCOCC2)nc(N2CCN(C(=O)[C@H]([C@@H](C)CC)n3cc(CCCN=C(N)N)nn3)CC2)n1 | – | inconclusive: 31.6 µM [inhibitor, single point] |
| CCC1CCC2(CC1)NNC(=S)NN2 | – | inconclusive: 7.08 µM [inhibitor, single point] |
| Cc1ccc(-c2nc(P(=O)(c3ccccc3)c3ccccc3)c(N3CCOCC3)o2)cc1 | – | inconclusive: 22.4 µM [inhibitor, single point] |
| CCOc1ccc(/C=C/c2nc(C#N)c(N3CCC(C)CC3)o2)cc1 | inactive: 3.19% | – |
| O=C(c1ccc2nc(-c3ccco3)c(-c3ccco3)nc2c1)N1CCN(c2ccccc2)CC1 | – | inconclusive: 31.6 µM [inhibitor, single point] |
| NC(=S)N=Nc1c(O)[nH]c2ccccc12 | – | inconclusive: 15.8 µM [inhibitor, partial curve] |
| O=C(Cc1ccccc1)NCC(=O)OCC(=O)c1ccc(Cl)c([N+](=O)[O-])c1 | – | inconclusive: 31.6 µM [inhibitor, single point] |
| CC1(C)Cc2c(C#N)c(N3CCN(C(=O)c4ccccc4)CC3)nc(-c3ccco3)c2CS1 | – | active: 28.2 µM |
| COC(=O)CSc1nc(-c2ccccc2)cc(-c2ccco2)c1C#N | – | inconclusive: 20 µM [inhibitor, single point] |
| COc1cccc(NS(=O)(=O)c2ccc3c(c2)C2C=CCC2C(c2ccc(C(=O)O)cc2)N3)c1 (configuration not stated) | – | inconclusive: 31.6 µM [inhibitor, single point] |
| N/C(=N\OC(=O)CCCc1ccccc1)c1ccccn1 | inactive: -2.93% | – |
| COc1cccc(/C=C/c2nc(C#N)c(NCCN(C)C)o2)c1 | – | active: 25.1 µM |
| Cc1ccccc1CS(=O)(=O)c1nnc([C@H](CC(C)C)NC(=O)OC(C)(C)C)o1 | – | active: 12.6 µM |
| O=C(NCCCN1CCCCCC1)c1ccc(CS(=O)(=O)Cc2ccccc2F)o1 | – | inconclusive: 22.4 µM [inhibitor, single point] |
| Cc1ccccc1/C=N/Nc1ccnc2cc(Cl)ccc12 | – | inconclusive: 28.2 µM [inhibitor, single point] |
| Cc1ccc(S(=O)(=O)N2CCCCC2)cc1NC(=O)COC(=O)CNC(=O)c1cc(Cl)cc([N+](=O)[O-])c1 | – | active: 10 µM |
| CSCCC(NC(=O)c1ccc([N+](=O)[O-])cc1Cl)C(=O)OCC(=O)NCCCc1ccccc1 (configuration not stated) | – | inconclusive: 28.2 µM [inhibitor, single point] |
| O=S(=O)(c1ccc2nc(NCc3ccccc3Cl)ccc2c1)N1CCCCC1 | inactive: -1.7% | – |
| Cc1ccc(NC2c3ncccc3C(=O)N2c2ccccc2C)cc1C (configuration not stated) | – | inconclusive: 28.2 µM [inhibitor, single point] |
| O=C(NC1CC1)c1cc2c(s1)-c1ccccc1OC2 | – | inconclusive: 35.5 µM [inhibitor, single point] |
| COc1ccc(C(=O)NCC(c2ccc(N(C)C)cc2)N2CCc3ccccc32)cc1 (configuration not stated) | – | inconclusive: 10 µM [inhibitor, partial curve] |
